In all, about 410,000 compounds went through this assay and about 6,400 (1.6%) were called active. The inconclusive results got no clear call from the source; some entries with a clear call stand among them for comparison. The call rests on the fitted dose curve; in most records, active means well fitted inhibition curve with a large enough effect; inconclusive means small, poorly fitted or top-dose-only effect; inactive means no such curve, though single readings can be large or run the other way. Where the call is inconclusive, the potency comes from a doubtful curve fit.
molecular target: Glucagon-like peptide 1 receptor (Homo sapiens) (UniProt P43220); experiment: qHTS of GLP-1 Receptor Inverse Agonists (Inhibition Mode); conditions: HEK293 GLP-1R CRE-luciferase, luminescence, 24 h, GLP-1R form is constitutively active; series mostly up to 38.3 µM; further: nearly all actives have a fitted effect of over 55% in size
Summary of the method: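 GLP-1R inverse agonism mode: basal reporter luminescence in engineered HEK293 cells measured after one day of compound exposure at 37 deg C, with a 12 min room-temperature detection step.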
Potency means the concentration at half of the fitted maximal effect; tags describe the fitted curve by direction and shape.

Sequence of UniProt P43220 (P43220 whole entry, looked up): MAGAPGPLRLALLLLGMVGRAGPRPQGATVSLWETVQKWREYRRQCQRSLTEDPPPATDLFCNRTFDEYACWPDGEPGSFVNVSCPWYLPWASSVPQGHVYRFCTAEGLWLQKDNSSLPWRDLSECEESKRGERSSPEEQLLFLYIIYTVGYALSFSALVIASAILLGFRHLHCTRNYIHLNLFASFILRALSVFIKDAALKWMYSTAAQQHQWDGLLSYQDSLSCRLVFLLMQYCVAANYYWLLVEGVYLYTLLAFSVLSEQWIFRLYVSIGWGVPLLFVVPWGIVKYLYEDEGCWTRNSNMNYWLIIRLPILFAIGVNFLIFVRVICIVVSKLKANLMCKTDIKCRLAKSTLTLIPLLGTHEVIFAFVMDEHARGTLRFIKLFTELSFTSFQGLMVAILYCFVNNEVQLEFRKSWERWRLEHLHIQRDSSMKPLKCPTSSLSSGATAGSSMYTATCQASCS

Potency, inconclusive:
O=C(c1cccc2ccccc12)N1CCN(Cc2ccccc2F)CC1 12.6 µM [inhibitor, partial curve, poor fit]
COC(=O)[C@H](C)[C@H]1C[C@]1(C)[C@H](NC(=O)OCc1ccccc1)c1ccccc1 28.2 µM [inhibitor, single point]
CCOC(=O)[C@]12CCC=C1N(Cc1ccc(Cl)cc1Cl)C(=O)[C@H](CC(=O)NCCCN1CCCC1=O)C2 8.91 µM [inhibitor, single point]
COC(=O)c1cnn(-c2ccc(F)cc2F)c1/C=N/NC(=S)NC(C)(C)C 12.6 µM [inhibitor, single point]
N/C(=N\OC(=O)c1ccc(Cl)cc1[N+](=O)[O-])c1ccccn1 11.2 µM [inhibitor, partial curve, poor fit]
Fc1cccc(CN2CCN(Cc3nc(CCc4ccccc4)no3)CC2)c1 10 µM [inhibitor, partial curve, poor fit]
Clc1ccc2nc(C3CCN(Cc4ccccc4)CC3)[nH]c2c1 11.2 µM [inhibitor, partial curve, poor fit]
CC(=O)c1ccc(NC(=O)Nc2ccc(S(=O)(=O)N3CCCC3)cc2)cc1 11.2 µM [inhibitor, single point]
Cn1nnnc1SCCCNCc1cc(Br)ccc1OCc1ccccc1 28.2 µM [inhibitor, single point]
COc1ccc(C(C)(O)c2nc(-c3cccc(F)c3)cs2)cc1 (stereo not drawn) 17.8 µM [inhibitor, partial curve, poor fit]
O=C(Nc1cccc(F)c1)c1cc(S(=O)(=O)NCCC2=CCCCC2)ccc1F 6.31 µM [inhibitor, partial curve, poor fit]
O=C(c1cc2ccccc2oc1=O)N(Cc1ccccc1)Cc1ccc2c(c1)OCO2 10 µM [inhibitor, partial curve]
COc1ccc(NC(=O)c2cccnc2N2CCCCC2)cc1 12.6 µM [inhibitor, single point]
CC(C)(C)C(=O)OCc1nc(-c2ccc(C(F)(F)F)cc2)cs1 28.2 µM [inhibitor, single point]
CC(C)CCNC(=O)C(c1ccncc1)N(Cc1cccs1)C(=O)Cn1nnc(-c2ccc(F)cc2)n1 (stereo not drawn) 3.98 µM [inhibitor, partial curve, poor fit]
O=C(CN1C(=O)/C(=C\c2ccc(C(F)(F)F)cc2)Sc2ccccc21)NCc1ccco1 7.08 µM [inhibitor, partial curve, poor fit]
C=CCn1c(SCC(=O)NC(=O)NCC(C)C)nnc1C1CCCCC1 12.6 µM [inhibitor, partial curve, poor fit]
Cc1cc(OC(F)F)ccc1NC(=S)NC1CCCC1 11.2 µM [inhibitor, single point]
Clc1ccc(-n2nnnc2-c2cnc3ccccc3c2-c2ccccc2)cc1 12.6 µM [inhibitor, partial curve, poor fit]
CCCC(C)(C)C(=O)N1CCC1(C)C(=O)NS(=O)(=O)c1cccc(Cl)c1 (stereo not drawn) 8.91 µM [inhibitor, partial curve, poor fit]
CC1(C)CC(C)(c2ccc(O)cc2O)N(c2ccc3ccccc3c2)C(=S)N1 (stereo not drawn) 28.2 µM [inhibitor, single point]
COc1ccc(N(C)S(=O)(=O)c2cccc(C(=O)Nc3nc(C)cs3)c2)cc1 11.2 µM [inhibitor, partial curve, poor fit]
Cc1oc(-c2ccccc2Cl)nc1CS(=O)CC(=O)N1CCN(c2cccc(C(F)(F)F)c2)CC1 (stereo not drawn) 28.2 µM [inhibitor, single point]
O=C(N/C(=C\c1ccccc1)C(=O)N1CCCCCC1)c1ccccc1 22.4 µM [inhibitor, single point]
CCOc1ccc(N(CC(=O)Nc2ccc(Cl)cc2)S(C)(=O)=O)cc1 28.2 µM [inhibitor, single point]
C=C(Br)Cn1c(CC)nc2ccccc21 5.62 µM [inhibitor, partial curve, poor fit]
CC1=C(C(=O)OC2CCCC2)C(c2ccc(C)o2)C2=C(CC(c3cccs3)CC2=O)N1 (stereo not drawn) 28.2 µM [inhibitor, single point]
Cc1cccc(C(=O)NNC(=S)NC(=O)c2ccccc2)c1 20 µM [inhibitor, single point]
O=C1c2ccccc2C(=O)N1CCCc1c[nH]c2ccc(Cl)cc12 11.2 µM [inhibitor, partial curve, poor fit]
O=C(Nc1ccncc1)Nc1ccc(Cl)cc1 28.2 µM [inhibitor, single point]
COc1cccc(NC(=S)N(CCCN2CCCC2)Cc2cccn2Cc2ccc(Cl)cc2)c1 6.31 µM [inhibitor, partial curve, poor fit]
CCNC(=O)N1CCN(CCCC(c2ccc(F)cc2)c2ccc(F)cc2)CC1 8.91 µM [inhibitor, partial curve, poor fit]
CCOC(=O)c1sc(NC(=O)c2cccc(S(=O)(=O)N3CCc4ccccc43)c2)c(C#N)c1C 2.51 µM [inhibitor, full curve, poor fit]
Cc1[nH]c2ccccc2c1SCC(=O)N1CCN(c2ccccc2)CC1 8.91 µM [inhibitor, single point]
CCN1CCN(C(CNS(=O)(=O)c2ccc(Cl)cc2)c2ccccc2)CC1 (stereo not drawn) 12.6 µM [inhibitor, single point]
CCCCN(C)CC(O)Cn1cc(/C=C/C(=O)c2cccs2)c2ccccc21 (stereo not drawn) 11.2 µM [inhibitor, partial curve, poor fit]
O=C(CC(C(=O)O)c1ccc(Cl)cc1Cl)c1ccc(Cl)cc1 (stereo not drawn) 7.94 µM [inhibitor, partial curve]
COc1ccc(C(O)c2coc3ccc(O)c(CN(C)C)c23)cc1 (stereo not drawn) 31.6 µM [inhibitor, partial curve, poor fit]
Clc1ccc(-c2ccc(CNCC3CCCO3)o2)cc1 (stereo not drawn) 20 µM [inhibitor, single point]
COc1ccc(NC(=O)C(c2ccccc2)N2Cc3ccccc3C2=O)cc1 (stereo not drawn) 11.2 µM [inhibitor, single point]
c1coc(CN(Cc2cccs2)Cc2nnnn2C2CCCCC2)c1 10 µM [inhibitor, partial curve, poor fit]
CCOc1ccc2nc(NC(=O)C3CCCN(S(=O)(=O)c4cccs4)C3)sc2c1 (stereo not drawn) 11.2 µM [inhibitor, partial curve, poor fit]
COc1cc(S(=O)(=O)N2CCN(c3ccccn3)CC2)ccc1Br 8.91 µM [inhibitor, single point]
CCCc1ccc(S(=O)(=O)N2CCN(C(C)C(=O)NC3CCCC3)CC2)cc1 (stereo not drawn) 10 µM [inhibitor, single point]
COc1cccc(N2CCN(C(=O)c3oc4ccccc4c3NC(=O)CCc3cc(OC)no3)CC2)c1 28.2 µM [inhibitor, single point]
COc1ccccc1-c1cc(C(=O)N2CCN(c3ccccc3)CC2)no1 20 µM [inhibitor, single point]
OC(COc1ccccc1F)CN1CCC(Cc2ccccc2)CC1 (stereo not drawn) 8.91 µM [inhibitor, partial curve, poor fit]
C[C@H](CO)N1C[C@H](C)[C@@H](CN(C)CC2CC2)Oc2c(NC(=O)Cc3ccccc3)cccc2C1=O 8.91 µM [inhibitor, partial curve, poor fit]
COC(=O)c1ccc(NC(=S)Nc2ccccn2)cc1 10 µM [inhibitor, partial curve, poor fit]

Potency, inactive:
CN1C(=O)NC(c2ccc(Cl)cc2)C2=C1CC(C)(C)CC2=O (stereo not drawn)
CCOC(=O)[C@@H]1[C@H]2COc3ccc(Br)cc3[C@H]2N2C(=O)N(c3ccc(OC)cc3)C(=O)[C@]12C
Cc1c(N=C2NC(=O)/C(=C/c3ccc(O)cc3)S2)c(=O)n(-c2ccccc2)n1C
CCOc1cc(/C=N/Nc2nc(N3CCCCC3)nc(N3CCCCC3)n2)ccc1OC(=O)c1ccco1
CC(C)c1ccc(C(=O)NN2CCOCC2)cc1
CCOC(=O)CSCc1c(C#N)c2ccccc2n1C
NC(=O)c1ccc(-c2ccc(Br)cc2)o1
COc1ccccc1NC(=O)CSc1nnnn1-c1ccccc1OC
O=C(Nc1ccccc1)c1cccc(S(=O)(=O)Nc2ccccn2)c1
CCOc1ccc(NC(=O)CN(C)C(=O)c2ccc(C)o2)cc1OCC
COc1ccc(-c2nc3c(-c4ccccc4)cnn3cc2C)cc1F

Potency, active:
O=C(CCl)Nc1ccc(-c2ccccc2)cc1 10 µM
COc1cccc(NC(=S)N2CCN(C/C=C/c3ccccc3)CC2)c1 5.62 µM
COc1ccc(N2CCN(C(c3ccccc3)c3nnnn3Cc3ccc(F)cc3)CC2)cc1 (stereo not drawn) 12.6 µM
